PubChem BioAssay AID488969 (Vanderbilt High Throughput Screening Facility, 2010)
Whole data set: some 110,000 compounds, median “z-score” near -0.1, cut for the highest 2% near 2. The list shows a part of the results. Activity calls are given as the source filed them.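 Rule for the calls: active = z-score in the third read window above 3 or below -3; inactive = the rest.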

These compounds were tested against Metabotropic glutamate receptor 8 (Rattus norvegicus) (UniProt P70579) (assay: rat mGluR8 modulators via GIRK flux, primary screen, cell-based, thallium flux, HTS (AID 488969)). Conditions: HEK293 rat mGluR8, GIRK (G protein-gated inwardly rectifying potassium channel) thallium flux, FluoZin2; at 10 µM; stronger effect = higher value; submaximal glutamate (EC20) added with thallium.
Sequence of UniProt P70579 (P70579 whole entry, looked up): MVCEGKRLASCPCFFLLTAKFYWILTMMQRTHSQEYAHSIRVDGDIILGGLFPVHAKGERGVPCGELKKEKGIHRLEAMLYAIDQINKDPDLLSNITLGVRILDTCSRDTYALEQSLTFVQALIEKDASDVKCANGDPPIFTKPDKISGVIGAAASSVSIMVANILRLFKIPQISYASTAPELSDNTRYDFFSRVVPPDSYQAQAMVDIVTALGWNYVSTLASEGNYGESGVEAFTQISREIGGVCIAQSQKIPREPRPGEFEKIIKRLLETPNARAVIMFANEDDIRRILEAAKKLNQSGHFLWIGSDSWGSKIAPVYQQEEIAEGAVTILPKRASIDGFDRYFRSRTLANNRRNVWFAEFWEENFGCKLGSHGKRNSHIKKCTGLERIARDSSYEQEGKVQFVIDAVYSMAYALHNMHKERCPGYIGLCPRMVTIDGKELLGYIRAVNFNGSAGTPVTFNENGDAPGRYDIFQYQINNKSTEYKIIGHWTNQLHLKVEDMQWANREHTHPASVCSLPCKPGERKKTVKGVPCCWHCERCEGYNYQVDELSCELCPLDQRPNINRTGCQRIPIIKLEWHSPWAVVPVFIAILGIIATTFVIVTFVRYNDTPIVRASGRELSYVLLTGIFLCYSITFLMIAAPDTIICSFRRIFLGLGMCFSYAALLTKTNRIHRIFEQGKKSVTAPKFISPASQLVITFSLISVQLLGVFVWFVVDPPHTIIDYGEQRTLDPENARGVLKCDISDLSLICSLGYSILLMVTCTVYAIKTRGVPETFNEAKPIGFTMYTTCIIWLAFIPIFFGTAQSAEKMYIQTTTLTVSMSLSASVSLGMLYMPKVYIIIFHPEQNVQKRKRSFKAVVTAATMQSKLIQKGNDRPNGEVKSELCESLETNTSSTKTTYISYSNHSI
`Nc1nc(-c2ccccc2)nc(-c2ccccc2O)n1` gave a z-score of 1.01.
With `CCOc1ccc2nc(SCC(=O)N3c4ccccc4Sc4ccccc43)sc2c1` the z-score was 0.268.
`O=C(CSc1nnc(SCc2ccc(Cl)cc2)s1)N/N=C/c1c[nH]c2ccccc12` gave a z-score of 0.345.
With `O=[N+]([O-])c1cccc(-c2nnc(-c3ccc4c(c3)OCO4)o2)c1` the z-score was -0.286.
With `COCc1cc(Sc2ccc(Br)cc2)nc(-c2ccccc2)n1` the z-score was -0.015.
Work on `CC(C)c1ccc(S(=O)(=O)N2CCN(C(=S)NCc3ccco3)CC2)cc1` yielded a z-score of -0.246.
`Cc1ccc(C(=O)Cn2cnc3ccccc3c2=O)cc1C` was tested, and the z-score was 0.299.
Work on `Cc1cc(NC(=O)C23CCC(C)(C(=O)O2)C3(C)C)no1` (stereo unspecified) yielded a z-score of -0.23.
Compound `CCn1cc([N+](=O)[O-])c(C(=O)N2N=C3/C(=C/c4cccs4)CCCC3C2c2cccs2)n1` (stereo unspecified) has a z-score of -0.066.
In the case of `Clc1ccc(Nc2ccc(NCc3ccccc3)nn2)cc1`, the z-score is reported as -0.287.
Compound `O=C(Nc1cccc(F)c1)c1coc(=O)c(Br)c1` has a z-score of -0.611.
Compound `CC(C)(C)C1=C(C#N)C(c2ccncc2)C(C#N)=C(N)O1` (stereo unspecified) has a z-score of 0.014.
`O=C(CSc1nc(C2CCCCC2)nc2ccccc12)NCc1ccc2c(c1)OCO2` was tested, and the z-score was -1.07.
In the case of `Cc1ccc(N2C(N)=NC(N)=NC2(C)C)c(C)c1`, the z-score is reported as -0.263.
`N#Cc1ccccc1Cn1c(=O)n(C2CCCC2)c(=O)c2ccccc21` gave a z-score of -1.01.
`Cc1cccc(C)c1NC(=O)COC(=O)c1cc(-c2cccnc2)nc2ccccc12` gave a z-score of -0.617.
`COc1ccc(CCNC(=O)CN(C2CCCCC2)S(C)(=O)=O)cc1` was tested, and the z-score was 0.206.
Work on `CCOC(=O)c1nnn(CC(=O)Nc2cc(F)ccc2F)c1C(=O)OCC` yielded a z-score of -0.0535.
`COc1ccc(C2C(C(=O)Nc3ccccc3)=C(C)N=C3SCC(=O)N32)cc1` (stereo unspecified) showed a z-score of 0.243.
With `CCCCNC(=O)c1ccc(NS(=O)(=O)c2ccccc2)cc1` the z-score was 0.944.
With `Cc1ccc(S(=O)(=O)N(C)CC(=O)N2CCCC2)cc1` the z-score was 0.257.
`O=C(Nc1cccc(-c2cn3ccccc3n2)c1)C1CC1` showed a z-score of -0.233.
Compound `CCOC(=O)c1cnc2c(C)c(Cl)ccc2c1N1CCOCC1` has a z-score of 0.028.
`CCCCN1CCc2[nH]c(=S)[nH]c(=O)c2C1` gave a z-score of -0.178.
Work on `CCOC(=O)Cn1ncc(-c2ccccc2)c1N` yielded a z-score of 0.175.
With `O=C(Nc1ccc2c(c1)OCO2)C1CCN(S(=O)(=O)c2cccs2)CC1` the z-score was 1.49.
With `N#Cc1c(NCCO)nc(NCc2ccccc2)c2c1CCN(Cc1ccccc1)C2` the z-score was -0.208.
`COc1ccc(Br)cc1CN(C)C(C)C(=O)Nc1cc([N+](=O)[O-])ccc1OC` (stereo unspecified) gave a z-score of -0.119.
`COc1ccc(-c2[nH]n(-c3ccc([N+](=O)[O-])cc3)c(=O)c2C=NCc2ccc(F)cc2)cc1` showed a z-score of 0.612.
`COc1ccccc1NC(=O)c1nnn(CC(=O)Nc2cccc(SC)c2)c1N` was tested, and the z-score was 1.15.
`COc1cc(NC(=O)CN2c3cccc4cccc(c34)S2(=O)=O)cc(OC)c1OC` gave a z-score of 1.
Work on `O=c1c([N+](=O)[O-])c(N2CCCCCC2)c2ccccc2n1-c1ccccc1` yielded a z-score of -0.205.
In the case of `C=CCn1c(-c2cccs2)nc2ccccc21`, the z-score is reported as active: 3.14.
Compound `COc1ccc(-c2cc3ccccc3n2CC(O)CNC(CO)(CO)CO)cc1` (stereo unspecified) has a z-score of 0.348.
`Cc1c(O)nc(SCC(=O)Nc2ccc3c4c(cccc24)CC3)n(-c2ccc(F)cc2)c1=O` showed a z-score of -0.749.
With `Cc1cc(Cl)ccc1Oc1nc(-c2ccc(F)cc2)ccc1C#N` the z-score was -0.289.
Compound `CSCc1cc(N(C)C)nc(SCc2ccc(Cl)cc2Cl)n1` has a z-score of -0.0279.
`CCOC(=O)C1=C(O)c2ccccc2C(=O)/C1=C\c1ccc(C)cc1` showed a z-score of 1.29.
`CCCCS(=O)(=O)C1CCS(=O)(=O)C1` (stereo unspecified) gave a z-score of -0.0597.
For `CCCn1c(=N)n(CCOCCOCCn2c(=N)n(CCC)c3ccccc32)c2ccccc21`, the z-score was 0.012.
For `Cc1ccc(NC(=O)c2ccncc2)cc1S(=O)(=O)N(C)C`, the z-score was -0.143.
With `CCOC(=O)N1CCN(C(=O)Nc2cccc(Cl)c2)CC1` the z-score was 0.474.
Work on `Cc1noc(C)c1COc1cccc(C(=O)OCC(=O)NC(=O)c2ccc(OC(F)F)cc2)c1` yielded a z-score of -0.262.
With `COc1ccc(C(=O)NC(=S)Nc2cc(C)ccn2)cc1[N+](=O)[O-]` the z-score was 0.115.
For `CSCCC(NC(=O)c1ccc(Cl)cc1)C(=O)OCC(=O)c1ccc[nH]1` (stereo unspecified), the z-score was 0.12.
`O=C(NC1CCCCC1)C1CCN(S(=O)(=O)c2cccs2)CC1` showed a z-score of 0.0582.
`CN(C)S(=O)(=O)c1ccc(C(=O)Nc2cccnc2)cc1` was tested, and the z-score was 0.829.
`O=C(COc1ccc(-c2nnco2)cc1)N1CCN(S(=O)(=O)c2ccccc2)CC1` showed a z-score of -0.00876.
`O=C(CC(Cc1ccccc1)c1ccco1)NC1CCCCC1` (stereo unspecified) was tested, and the z-score was -0.295.
`O=C(c1cc2cc(Br)cc(Br)c2oc1=O)N1CCCc2ccccc21` gave a z-score of -0.473.
In the case of `O=C(c1ccc(F)cc1)C1CCN(C(=O)NCc2ccccc2)CC1`, the z-score is reported as 0.261.
With `COc1ccc(N/C=C(\C#N)c2ccc(OCCCF)cc2)cc1` the z-score was -0.144.
In the case of `CC(C)(C)NC(=O)COC(=O)/C=C/c1ccccc1[N+](=O)[O-]`, the z-score is reported as 0.706.
Work on `Cc1cccc(-n2c(SCc3ccc(C#N)cc3)nnc2-c2c[nH]c3ccccc23)c1` yielded a z-score of -0.436.
Compound `Cc1ccc(OC(C)C(=O)N2CCCc3ccccc32)cc1` (stereo unspecified) has a z-score of -0.266.
`CN(C)c1nc(N)nc(CSc2n[nH]c(-c3ccccc3)n2)n1` gave a z-score of -0.00289.
`CN(C)C(=O)Cn1cnc2c(cnn2-c2ccccc2Cl)c1=O` showed a z-score of -0.00226.
In the case of `CCSc1nnc(-c2ccncc2)n1Cc1ccccc1`, the z-score is reported as -0.0653.
For `O=C(Nc1cccc2ccccc12)c1onc2c1CCCC2`, the z-score was -0.185.
`Cc1ccc(-n2c(-c3ccc(Br)cc3)c[n+]3c2CCc2ccc4cccnc4c2-3)cc1` was tested, and the z-score was active: 4.86.
`CCN1CCN(CC(O)COc2ccc(C(C)=O)cc2)CC1` (stereo unspecified) was tested, and the z-score was 0.228.
For `Cc1cc2n(c(=O)c1C#N)CCCN2c1cccc(Cl)c1`, the z-score was 0.112.
`O=C(O)/C=C\C(=O)N1CCc2ccccc21` was tested, and the z-score was -0.345.
In the case of `Cc1ccc(C(=O)Nn2cnnc2)cc1[N+](=O)[O-]`, the z-score is reported as -0.159.
`CCOC(=O)c1oc2ccccc2c1NC(=O)c1ccccc1OC` was tested, and the z-score was -0.0477.
`O=C(NCCN1CCCCC1)/C(=N\O)c1ccccc1` showed a z-score of 0.457.
In the case of `O=C(CSCc1ccccc1)Nc1cccc(C(=O)Nc2ccccc2C(=O)O)c1`, the z-score is reported as -0.568.
In the case of `COc1ccc(C2C(C(=O)Nc3ccccc3)=C(C)Nc3nc(CCCO)nn32)cc1` (stereo unspecified), the z-score is reported as -0.432.
`O=C(NCCc1ccccc1)N1c2ccccc2Sc2ccccc21` showed a z-score of -0.298.
For `O=C(Nc1ccc(Cl)cn1)C1CCCN1S(=O)(=O)c1cccc2ccccc12` (stereo unspecified), the z-score was -0.368.
Compound `CCOc1ccc2nc(NC(=O)/C=C/c3ccc4c(c3)OCO4)sc2c1` has a z-score of -0.409.
`Cc1cc(=O)oc2cc(Oc3ccc([N+](=O)[O-])cc3C(F)(F)F)ccc12` showed a z-score of 0.15.
In the case of `COc1ccc(C/C(N)=N/OC(=O)Cc2ccccc2)cc1OC`, the z-score is reported as -0.185.
Work on `O=c1cc(N2CCc3ccccc3C2)[nH]c(=O)n1-c1ccc(Cl)cc1` yielded a z-score of -0.272.
In the case of `COc1cccc2[nH]c3c(N4CCCC(C)C4)ncnc3c12` (stereo unspecified), the z-score is reported as -0.105.
`Cc1ccc(C(=O)N/N=C/c2nc3ccccc3n2C)cc1` showed a z-score of -0.494.
`CCc1nc2ccccc2n(CCOCCOCCn2c(=O)c(CC)nc3ccccc32)c1=O` showed a z-score of -1.86.
Work on `N#Cc1ccccc1NC(=O)CSc1nnc(-c2ccc(F)cc2)n1-c1ccccc1` yielded a z-score of -0.102.
`COCCCNC(=S)NC1CC2CCCC(C1)N2Cc1cccs1` (stereo unspecified) gave a z-score of -0.0623.
In the case of `CCOC(=O)Cc1csc(NC(=O)CSc2nnnn2-c2ccc(C)cc2C)n1`, the z-score is reported as 0.498.
In the case of `O=C(Oc1ccc2c(c1)OCO2)c1cccs1`, the z-score is reported as -0.0608.
`Cc1ccc(SCc2ccc(C(=O)Nc3ccccc3C(=O)NC(C)C)cc2)cc1` gave a z-score of -0.377.
Work on `Cc1c(C(=O)Nc2ccccc2[N+](=O)[O-])csc1-c1ccccc1` yielded a z-score of -0.152.
`CCOC(=O)c1ccccc1NC(=O)CC(C)CC(=O)O` (stereo unspecified) was tested, and the z-score was 0.0768.
Work on `COc1ccc(C(=O)NN2C(=O)C3C4C=CC(O4)C3C2=O)cc1` (stereo unspecified) yielded a z-score of -0.0264.
For `Cn1c(SCC(=O)c2ccccc2)nnc1-c1ccc(O)cc1`, the z-score was 0.0183.
Work on `Cc1[nH]c2ccc(C(=O)O)cc2c1C` yielded a z-score of 0.917.
In the case of `Brc1ccc(CSc2nccn2-c2ccccc2)cc1`, the z-score is reported as -0.198.
Compound `Cc1cc2n(n1)C(c1sccc1C)Nc1c(C)cccc1-2` (stereo unspecified) has a z-score of 0.912.
Work on `CN(CC(=O)Nc1ccc(Cl)cc1)S(=O)(=O)c1cccc2cccnc12` yielded a z-score of -0.797.
`Cc1c(C(=O)N/N=C/c2ccccc2)sc(=S)n1C` was tested, and the z-score was -0.243.
`CCN(CC)S(=O)(=O)c1ccc(NC(=O)Cn2c(=O)sc3ccccc32)cc1` was tested, and the z-score was -0.718.
With `COc1ccc(NC(=O)C2CCN(S(=O)(=O)c3ccc(OC)c(OC)c3)CC2)cc1` the z-score was -0.0554.
`COc1ccc(NC(=O)N2CCn3c2nc2ccccc23)cc1` showed a z-score of 0.0773.
Compound `Cc1nn(-c2ccccc2)c(C)c1/C=N/NC(=O)CSc1nc2ccccc2c(=O)n1-c1ccccc1` has a z-score of -2.12.
`CCOc1ccccc1C(=O)NCC(=O)OCC(=O)N1C(C)CCCC1C` (stereo unspecified) gave a z-score of -1.16.
Compound `Cc1c(NC(=O)C(C)OC(=O)c2cc(Cl)nc(Cl)c2)c(=O)n(-c2ccccc2)n1C` (stereo unspecified) has a z-score of 0.0979.
Work on `Cc1cccc(OCC(=O)Nc2cccc(C(=O)NCC(C)C)c2)c1` yielded a z-score of -0.265.
Compound `Cc1cccc(-c2noc(CSc3ccccc3)n2)c1` has a z-score of -0.319.
With `CC(CC(=O)NCc1ccccc1)C1CCCO1` (stereo unspecified) the z-score was 0.956.
Compound `CCN(CCCNC(=O)CCNC(=O)Cn1ccc2ccccc2c1=O)c1ccccc1` has a z-score of -0.46.
`CCC(=O)N1CCc2cc(S(=O)(=O)NC(C(=O)N3CCc4ccccc4C3)C(C)C)ccc21` (stereo unspecified) showed a z-score of -1.08.
Work on `O=C(CN1CCN(c2cccc(Cl)c2)CC1)N1CCCC1` yielded a z-score of 0.275.
In the case of `CCC(CC)C1C(C#N)=C(N)Oc2n[nH]c(C)c21` (stereo unspecified), the z-score is reported as -1.97.
`O=C(Nc1sc2c(c1C(=O)NCC1CCCO1)CCCC2)c1cccs1` (stereo unspecified) gave a z-score of -0.388.
`O=C(CCC(=O)N1CCc2ccccc2C1)N1CCN(S(=O)(=O)c2ccccc2)CC1` was tested, and the z-score was -0.356.
For `Cc1ccc(NC(=O)COc2ccc(-n3cnnn3)cc2)cc1C`, the z-score was -0.492.
`CCCCCCCCOC1OC(CO)C(O)C(O)C1NC(C)=O` (stereo unspecified) showed a z-score of -0.145.
`COc1ccccc1NC(=O)c1ccc(NS(=O)(=O)c2cccc3cccnc23)cc1` showed a z-score of -0.29.
For `C=CCOc1ccc(CNc2nccs2)cc1`, the z-score was -0.245.
With `O=C(COC(=O)C1CCC1)NCc1ccccc1Cl` the z-score was 0.111.
